Article PMC4336329 (PLoS ONE, 2015)
In all, about 310,000 compounds went through this assay and about 14,000 (4.5%) showed an effect of 50% or more. The effect is printed as a negative number. Some of the results follow.

target: human ether-à-go-go-related gene (hERG) potassium channel (human, UniProt Q12809); assay: primary screen, population patch clamp on CHO cells stably expressing hERG
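Also: peak tail current of the secondary pulse compared with the same well before compound.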

human ether-à-go-go-related gene (hERG) potassium channel, sequence (Q12809 whole entry, looked up): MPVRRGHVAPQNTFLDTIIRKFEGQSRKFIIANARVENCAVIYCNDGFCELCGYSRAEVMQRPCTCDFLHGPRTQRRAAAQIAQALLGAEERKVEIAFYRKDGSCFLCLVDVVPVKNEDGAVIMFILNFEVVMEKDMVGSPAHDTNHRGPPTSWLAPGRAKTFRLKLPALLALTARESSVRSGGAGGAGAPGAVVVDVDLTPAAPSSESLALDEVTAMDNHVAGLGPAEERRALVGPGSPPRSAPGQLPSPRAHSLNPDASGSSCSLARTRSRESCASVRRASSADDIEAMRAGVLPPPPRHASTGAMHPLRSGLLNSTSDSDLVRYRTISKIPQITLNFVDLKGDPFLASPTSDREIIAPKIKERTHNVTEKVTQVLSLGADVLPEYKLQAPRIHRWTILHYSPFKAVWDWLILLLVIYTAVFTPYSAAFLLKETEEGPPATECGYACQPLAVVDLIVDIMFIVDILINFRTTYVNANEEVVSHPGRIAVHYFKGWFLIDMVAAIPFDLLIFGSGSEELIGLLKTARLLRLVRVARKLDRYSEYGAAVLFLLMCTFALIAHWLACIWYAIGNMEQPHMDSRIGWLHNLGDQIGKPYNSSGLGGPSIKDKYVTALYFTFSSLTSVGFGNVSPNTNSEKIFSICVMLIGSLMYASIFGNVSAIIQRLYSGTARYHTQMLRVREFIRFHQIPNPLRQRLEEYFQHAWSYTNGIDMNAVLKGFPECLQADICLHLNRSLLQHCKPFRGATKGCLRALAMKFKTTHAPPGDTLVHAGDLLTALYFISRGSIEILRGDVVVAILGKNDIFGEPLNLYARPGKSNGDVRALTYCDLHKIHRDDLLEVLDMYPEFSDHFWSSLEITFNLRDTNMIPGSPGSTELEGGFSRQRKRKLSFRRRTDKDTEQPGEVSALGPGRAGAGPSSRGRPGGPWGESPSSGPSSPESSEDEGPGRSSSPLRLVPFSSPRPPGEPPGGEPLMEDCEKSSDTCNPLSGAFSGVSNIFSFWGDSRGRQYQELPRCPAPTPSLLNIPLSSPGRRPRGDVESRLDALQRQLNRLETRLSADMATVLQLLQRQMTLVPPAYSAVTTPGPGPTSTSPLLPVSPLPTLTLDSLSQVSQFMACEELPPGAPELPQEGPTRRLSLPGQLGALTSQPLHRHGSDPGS

SMILES	hERG current change (%, negative = inhibition) at 10uM [%]
Cn1nnc2cc(C(=O)NCc3ccc4c(c3)OCO4)ccc21	16.9
COc1cc(Br)c(CCNC(=O)c2ccco2)cc1OC	8.39
C/C(=N\NC(=O)CSc1nc2ccccc2o1)c1ccc(O)cc1	6.77
O=C(CC1N=C2c3ccccc3N=C(SCc3ccccc3Cl)N2C1=O)NCc1ccco1 (stereo not drawn)	-47
CC(C)N1C(=O)S/C(=C/c2ccccc2OCc2ccc(C(=O)O)cc2)C1=O	-6.06
NS(=O)(=O)c1ccc(Cl)cc1[N+](=O)[O-]	22
CC(=N)C1=C(O)CC(C)(C)CC1=O	1.84
COc1cccc(C2C(C#N)=C(N)N(c3ncn[nH]3)C3=C2C(=O)CCC3)c1 (stereo not drawn)	10.6
C=CCNC(=S)N(C1CCCCC1)C1CCCCC1	18.7
COc1ccc(-c2cn3c(C)c(C(=O)Nc4cccc(C)n4)sc3n2)cc1	1.23
CCOC(=O)C1CCN(S(=O)(=O)c2ccc(C)cc2)CC1	3.36
NC(N)=NS(=O)(=O)c1ccc(N)cc1	-0.264
CC1(O)C(=O)C=C2C=C(c3ccc(C#N)cc3)OC=C2C1=O (stereo not drawn)	20.1
Cc1nc(/C(N)=N/OC(=O)c2cccc(Cl)c2)c(C(F)(F)F)o1	12.2
COc1ccc(-c2cc(C(F)(F)F)n3nc(C(=O)N4CCCC4)cc3n2)cc1	-12.5
COC(=O)C1=C(C)OC(N)=C(C#N)C1c1cc2cc(C)ccc2nc1Cl (stereo not drawn)	25.5
Cc1c(C(=O)OCc2nc3ccsc3c(=O)[nH]2)oc2ccccc12	3.33
Cc1ccc(-n2cc(CN3CCC(CO)(Cc4cccc(C(F)(F)F)c4)CC3)cn2)cc1	-76
Cc1cc(C)c(C(=O)CSc2nc3ccccc3c(=O)[nH]2)cc1C	32.5
O=C(CCCc1ccccc1)NCCc1ccccc1	16.8
CN(CCC#N)C(=O)COC(=O)c1ccc2c(=O)n3c(nc2c1)CCC3	35
CN(CC(=O)Nc1cccc(F)c1)C(=O)c1ccccc1Sc1ccccc1C#N	-18.5
C/C=C/C(=O)N1CC2(CC(c3cccc(NC(=O)COc4ccc(Cl)cc4)c3)=NO2)C[C@@H]1C(N)=O (stereo partly drawn)	-41.4
CCOC(=O)c1[nH]c(C(=O)O)c(CCC(=O)OC)c1C	7.09
O=C(COC(=O)CCc1c[nH]c2ccccc12)Nc1cc([N+](=O)[O-])ccc1Cl	9.61
COc1ccc(CCNc2cc(C)nc(N)n2)cc1OC	2.02
O=C(NC1CCCCC1)C(c1ccco1)N(C(=O)c1csnn1)C1CCCC1 (stereo not drawn)	-9.22

SMILES	hERG current change (%, negative = inhibition) at 10uM [%]
CCS(=O)(=O)c1nc(S(=O)(=O)c2ccc(Cl)cc2)c(NCc2ccccn2)s1	2.86
Cc1ccc(S(=O)(=O)CCC(=O)NCCN2C(=O)S/C(=C/c3ccc(F)cc3)C2=O)cc1	-16.7
CCN(CC)CCNC(=O)CCc1nnc2ccc(N3CCC(C)CC3)nn12	15.3
CN(C)S(=O)(=O)c1ccc(Cl)c(C(=O)NCC2CCCCC2)c1	-7.74
CC1(C)OCC(COC(=O)Nc2cccnc2)([N+](=O)[O-])CO1	23.8
C#CCOCCOCCOCCNc1nc(N2CCN(C(=O)[C@H](CCCCN)n3cc([C@@H](N)CO)nn3)CC2)nc(N2CCN(C(=O)[C@H](Cc3cc4ccccc4[nH]3)n3cc([C@@H](N)Cc4ccc(O)cc4)nn3)CC2)n1.Cl	1.28
CCC/C(=N\NC(=O)c1ccc(OC)c(OC)c1)c1ccccc1	-2.94
COc1ccc(CN(C)CC2CCCN(CCc3ccc(F)cc3)C2)c(OC)c1OC (stereo not drawn)	-74.8
N#Cc1cccc(NC(=O)CC2CCCCC2)c1	-21.3
CCOC(=O)c1cc2occc2n1CC(=O)NC1CCC(C)CC1 (stereo not drawn)	-3.58
CCOC(=O)C[C@H]1c2ccc(C(F)(F)F)cc2S(=O)(=O)N1C(C)C	-14.4
Cc1[nH]c2ccccc2c1C(=O)CSc1cccc[n+]1[O-]	23.9
N/C(=N\c1nc(CSc2ccccn2)cc(=O)[nH]1)Nc1ccc(Cl)cc1Cl	21.9
CC(C)CN(C(=O)CN1CCN(c2ccc([N+](=O)[O-])cc2)CC1)c1c(N)n(CC(C)C)c(=O)[nH]c1=O	-36.7
CCCC(c1nnnn1Cc1ccc(OC)cc1)N1CCC(C(N)=O)CC1.Cl (stereo not drawn)	-14.6
Cc1cc(C2(c3ccc(O)c(C)c3)C(=O)N(C)c3ccc(Br)cc32)ccc1O	-2.28
COC(=O)c1sc2nc(CN3CCOCC3)nc(N3CCOCC3)c2c1C	1.53
CN(C)C(=O)c1cc(C(=O)c2ccc(F)cc2F)c[nH]1	14.6
Cn1cccc1C(=O)NCCc1ccccc1	6.72
O=[N+]([O-])c1ccc(S(=O)(=O)NCC(c2cccnc2)N2CCc3ccccc3C2)cc1 (stereo not drawn)	-35.6
Brc1ccc(-c2ccc(C3Nc4cccc5cccc(c45)N3)o2)cc1	6.67
C=CCn1c(-c2cccnc2Cl)nc2ccccc21	8.48
COc1ccc(CN(C(=O)Cc2c[nH]c3ccccc23)C(C(=O)NC2CCCCC2)c2ccc(C)o2)cc1 (stereo not drawn)	-3.73
CCC(=O)N/N=C(\C)CC(=O)Nc1cccc([N+](=O)[O-])c1	9.57
Cc1ccc(/C=C2/SC(=Nc3ccc(F)cc3)NC2=O)s1	23.4
Cc1cccc(OCCn2cccc2/C=C2/C(=O)NC(=O)N(Cc3ccco3)C2=O)c1	9.97
Clc1ccccc1CSc1nncn1NC/C=C/c1ccccc1	-5.97
